Data on 26 compounds can be found in PubChem BioAssay AID588579 (National Center for Advancing Translational Sciences (NCATS), 2011).

Where “and” joins values, the source holds several entries; their conditions need not be identical. Equal entries are not always repeated. About 2,200 (0.55%) of roughly 400,000 compounds were called active. Another 1% or so got no clear call; they are omitted. Calls follow the shape of the dose curve; as a rule, active = well fitted inhibition curve with a large enough effect; inconclusive = small, poorly fitted or top-dose-only effect, or another doubt; inactive = no such curve, though single readings can be large or run the other way. This is a selection; strong and weak results do not stand in their true shares. Some compounds were tested as several samples or in several runs, with calls that do not always agree.
% is scaled to controls: 0 for no effect and ±100 for the full control effect; potency is read from the fitted curve at half-maximal effect.

Chain of UniProt Q9UBT6 (Q9UBT6 whole entry, looked up): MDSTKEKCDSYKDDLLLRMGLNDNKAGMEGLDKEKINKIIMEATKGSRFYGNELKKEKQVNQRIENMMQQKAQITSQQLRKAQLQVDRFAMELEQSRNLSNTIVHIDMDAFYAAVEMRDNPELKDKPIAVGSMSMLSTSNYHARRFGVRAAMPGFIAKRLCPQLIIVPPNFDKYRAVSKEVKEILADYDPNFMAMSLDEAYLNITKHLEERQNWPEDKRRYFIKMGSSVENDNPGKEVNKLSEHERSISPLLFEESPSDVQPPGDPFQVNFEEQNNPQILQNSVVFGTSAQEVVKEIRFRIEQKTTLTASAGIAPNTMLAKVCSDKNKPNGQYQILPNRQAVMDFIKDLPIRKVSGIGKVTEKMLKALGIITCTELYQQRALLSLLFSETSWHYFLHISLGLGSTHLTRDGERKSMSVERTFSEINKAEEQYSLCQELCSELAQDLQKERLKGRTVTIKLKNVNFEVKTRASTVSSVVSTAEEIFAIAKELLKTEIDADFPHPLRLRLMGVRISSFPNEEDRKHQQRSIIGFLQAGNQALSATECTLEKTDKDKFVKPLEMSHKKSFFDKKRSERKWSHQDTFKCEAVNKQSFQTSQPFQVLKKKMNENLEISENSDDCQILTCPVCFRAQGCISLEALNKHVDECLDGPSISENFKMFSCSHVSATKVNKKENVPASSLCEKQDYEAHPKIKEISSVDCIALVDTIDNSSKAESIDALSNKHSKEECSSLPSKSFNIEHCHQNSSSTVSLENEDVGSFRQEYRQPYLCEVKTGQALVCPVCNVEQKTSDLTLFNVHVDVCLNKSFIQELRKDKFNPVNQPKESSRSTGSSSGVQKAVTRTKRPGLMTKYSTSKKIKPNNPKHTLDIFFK

In the test the target is DNA polymerase kappa (Homo sapiens) (UniProt Q9UBT6). The test is described as follows: qHTS for Inhibitors of Polymerase Kappa. As to conditions: purified Pol kappa, fluorescent DNA synthesis assay, 10 min; series mostly up to 107 µM; activity, negative = inhibition: at the top concentration. The method in brief:
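Pol kappa 10 nM + cpd, 15 min RT; start w/ substrate 50 nM final; fluorescence kinetic read, 0 and 10 min. Neg ctrl: buffer, no enzyme.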
As to `CCCCOC(=O)c1cc2c(cn1)[nH]c1ccccc12`, the activity, negative = inhibition is inactive: 0.0566% [at 19.4 µM] and inactive: 2.68% [at 19.4 µM]. Regarding `CCOC(=O)c1sc2nc3c(SCC(=O)O)cc(C(=O)c4cc(F)ccc4O)cn3c(=O)c2c1C`, the Potency was active: 50.1 µM. Turning to `CCOC(=O)c1cc2c(=O)n3ccccc3nc2n(Cc2ccco2)c1=NC(=O)c1ccccc1OC`, the “activity, negative = inhibition” value was inactive: -7.92%.

For the compound `C[C@@H]1CN(c2c(F)c(F)c3c(=O)c(C(=O)O)cn(C4CC4)c3c2F)C[C@H](C)N1`, the Potency entry is “inactive”. Same read-out and setting: the same measure for `CC1CCCN(Cc2c(O)ccc3c2O/C(=C\c2ccco2)C3=O)C1` (stereo unspecified): active: 35.5 µM. As to `CCCCC/C=C\C/C=C\C/C=C\CCCCC(=O)O`, the activity, negative = inhibition was inactive: 6.17% [at 19.4 µM]. Same read-out and setting: the same measure for `COc1ccc(NC(=O)CC2Nc3cccc4cccc(c34)NC2=O)cc1` (stereo unspecified): inactive: 6.07%.

Turning to `Cc1c(S(=O)(=O)O)oc2c1C(=O)C(=O)c1c-2ccc2c1CCCC2(C)C`, the Potency was active: 35.5 µM.

In the case of `NS(=O)(=O)c1cc2c(cc1C(F)(F)F)N[C@H](Cc1ccccc1)NS2(=O)=O`, the activity, negative = inhibition was inactive: -4.97% [at 12 µM]. Consider `N=C1/C(=C\c2ccc(Br)o2)C(=O)N=C2SC(CC(=O)N3CCCCC3)=NN12`, for which the Potency is active: 31.6 µM. On the same count and under the same terms, the figure for `CCN(CC(=O)Nc1c(F)cccc1F)C(=O)/C=C/c1ccc2ccccc2n1` is active: 8.91 µM; for `CN(C)CCCC1(c2ccc(F)cc2)OCc2cc(C#N)ccc21` (stereo unspecified) it is “inactive”; for `CCCC(CCC)C(=O)O` it is “inactive”. As for `O=S1(=O)[C@H]2C[C@@H]3C=C[C@@]2(CN1Cc1ccc(F)cc1)O3`, the “activity, negative = inhibition” value is inactive: 0%. As for `CN(C)CCC(c1ccc(Cl)cc1)c1ccccn1` (stereo unspecified), the Potency result is “inactive”. In the case of H-MSRPACPNDKYE-OH, the “activity, negative = inhibition” value was inactive: 15.3% [at 60.1 µM]. Consider `CC(=O)O[C@H]1Cc2ccccc2N(C(N)=O)c2ccccc21`, for which the Potency result is “inactive”. On to `CN(Cc1ccccc1)c1ccc(/C=C/c2nc3ccccc3s2)cc1`, for which the Potency was active: 25.1 µM.

With `N#Cc1ccc(-c2cccnc2)nc1SCC(=O)Nc1sc2c(c1C#N)CCC2`, the Potency is active: 79.4 µM. For the compound `NC(=O)[C@@H]1CCCN1C(=O)[C@H](Cc1cnc[nH]1)NC(=O)[C@@H]1CCC(=O)N1`, the “activity, negative = inhibition” value is inactive: 2.2% [at 60.1 µM].

`COc1ccc(S(=O)(=O)Nc2c(C)n(C)n(-c3ccccc3)c2=O)cc1Br`: the “activity, negative = inhibition” value is inactive: 3.53%. The same measure, in the same setting: the figure for `CC(C)(C)NC(=O)[C@@H]1CN(Cc2cccnc2)CCN1C[C@@H](O)C[C@@H](Cc1ccccc1)C(=O)N[C@H]1c2ccccc2C[C@H]1O` is inactive: -8.71%.

As for `O=C(O)c1ccccc1Nc1cccc(OCc2ccc3ccccc3n2)c1`, the Potency entry was “inactive”. Consider `CCCCCCCC/C=C\CCCCCCCC(=O)O`, for which the “activity, negative = inhibition” value was inactive: -4.94%. With `Cn1c(=O)c2c(ncn2C)n(C)c1=O`, the Potency entry is “inactive”. Turning to `Cc1c(Cl)cnc(NC(=O)COC(=O)/C=C/c2ccco2)c1Cl`, the Potency was active: 79.4 µM.
